The source gives no read counts; variants with many changes may rest on few reads.
B1: CPEB3 Ribozyme (parent)
chain: UAACAGGGGGCCACAGCAGAAGCGUUCACGUCGCAGCCCCUGUCAGAUUCUGGUGAAUCUGCGAAUUCUGCUGUAUAUCUC

Variants of: B1
Assay: self-cleavage, relative activity (ratio to wild type); higher = more cleavage; in vitro, sequencing
Procedure, shortened: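 CPEB3 self-cleaving ribozyme mutant libraries were made by rounds of error-prone PCR, barcoded, and transcribed in vitro with T7 RNA polymerase for 5 hours at 37°C. Cleavage occurred during transcription and a 15 min DNase I step before EDTA stop. RNAs were reverse transcribed with template switching and Illumina-sequenced, with DNA sequencing mapping barcodes to variants. Relative activity is the variant's cleaved/total read fraction divided by wild type's (minimum 5 reads), averaged across three batches.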

Row | Variant | self-cleavage
1 | UAACGGGGGGCCACAGCGGAAGCGUUCACGUCGCAGCCCCUGUCAGAUUCUGGUGAAUCUGCGAAUACUGCUGUAAAUCUC | 0.35
2 | UAACGGGGGGCCACAGCUGAAGCGUUCACGUCGCAGCCUCUGUCAGAUUCUGGUGAAUCAGCGAAUUCUGCUGUAUAUCUC | 0.29
3 | UAACGGGGGGCCACAGCAGGAGCGUUCACGUCGCAGCCCCUGUCCGAUUCUGGUGGAUCUGCGAAUUCUGCCGCAAAUCUC | 0.11
4 | UAACGGGGGGCCACAGCGGAAGCGUUCACGUCGCAGCCCCUGUCAGGUCCUGGUGAAUCUGCGAAUUCUGCUGUAUACCUC | 0.4
5 | UAACGGGGGGCCACAGCAGUAGCGUUCACGUCGCAGCCCCUGUCAGAUUCUGGUGAAUCUGCGAAUUCUGCAGUAUAUCUC | 0.46
6 | UAACGGGGGGCCACAGCAGUAGCGUCCACGUCGCAGCCCCUGUCAGAUUCUGGUGAAUCUGCGAAUUCUGCUGUAUAUCUC | 0.45
7 | UAACGGGGGGCCACAGCAGGAGCGUUCACGUCGCAGCCCCAGUCAGAUUCUGGUGAAUCUGCGAAUUCUGCUGUAUACCUC | 0.36
8 | UAACGGGGGGCCACAGCAGAUGCGUUCACGUAGCUGCCCCUGUCAGAUUCAGGUGAAUCUGCGAAUUAUGCUGUAUAUCUU | 0.02
9 | UAACGGGGGGCCACAGCAGAAGCGUUCGCGUCGCAGCCCCUGUAAGAUUCUGGUGAAUCUACGAAUUCUGCUGUAUAUCUC | 0.41
10 | UAACGGGGGGCCACAGCAGUAGCGUUCACGUCGCAGCCCCUGUCUGAUUCUGGUGAAUCUGCGAAUUCUGCUGUAUAUCUC | 0.44
11 | UAACGGGGGGCCACAGCAGUGGCGUUCACGUCGCAGCCCGUGUCAGAUUCUGGUGAAUCUGCGAAUACUGCUGUAUACCCC | 0.06
12 | UAACGGGGGGCCACAGCUGAAGCGUUCACGUCGCAGCCCCUGUCGGAUUCUGGUGAAUCUGCGAGUUCUGCUGUACAUCUC | 0.3
13 | UAACGGGGGGCCACAGCGGAAGCGUUCACGUCGCAGCCCCUGUCAGAUUCGGGAGAAUCUGCGAAUUCUGCUGUAUAUCUC | 0.49
14 | UAACGGGGGGCCACAGCAGUAGCGUUCACGUCGCAGCCCCUGUCAGAUUCUGGUGAGUCUGCGAAUUCUGCUGUAUAACUC | 0.81
15 | UAACGGGGGGCCACAGCAGAGGCGUUCGGGUCGCAGCCCAUGUCAGAUUCUGGUGAAUCUGCGGUUUCUGCUGUAUAUCUC | 0.04
16 | UAACGGGGGGCCACAGCUGAAGCGCUCACGUCGCAGCCCCAGUCAGAUUCUGGUGAAUCUGCGAAUUCUGCUGCAUAUCUC | 0.67
17 | UAACGGGGGGCCACAGCAGAAGCGUUCGCAUCGCAGCCCCAGUCAGAUUCUGGUGAAUAUGCGAAUUCCGCUGUAUAUCUC | 0.06
18 | UAACGGGGGGCCACAGCGGAAGCGUUCACGUCGCGGCCCCUGUCAGGUUCUGGUGAAUCUGAGAAUUCUGCUGUAUAUCUC | 0.14
19 | UAACGGGGGGCCACAGCAGAAGCGUUCGCGUCGCAGCCCCUGUCAGAUUCUGGUGAAUCUGCGAAUUCUGCCGUGUAUCUC | 0.55
20 | UAACGGGGGGCCACAGCAGAGGCGUUCACGUCGCAGCCCCUGCCAGAUUCUGGUGAAUCUGCGGAUUCUGCUGUAUAUCUC | 0.1
21 | UAACGGGGGGCCACAGCAGUAGCGUUUACGUCGCAGCCCCUGUCAGAUUCUGGUGAAUCUGCGAAUUCUGCUGUAUAUCUC | 0.23
22 | UAACGGGGGGCCACAGCAGGAGCGUCCACGUCGCAGCCCCUGUCAGAUUCUGGUGAAUCUGCGGAUUCUGCUGCAUAUCUC | 0.09
23 | UAACGGGGGGCCACAGCUAAAGCGUUCACGUCGCAGCCCCUGCCAGAUUCUGGUGAACCUGCGAAUUCUGCUGUAUAUCUC | 0.08

Row | Variant | self-cleavage
24 | UAACGGGGGGCCACAGCGGAAGCGUUCACGUCGCAGCCCCUGUCAGAUUCUGGUGAAUCUGCGGAUUCUGCUGUAUAUCUC | 0.19
25 | UAACGGGGGGCCACAGCUGAAGCGUUCACGUCGUAGCCCCUGUCAGAUUCUGGUGAAUCUGGGAAUUCUGCUGUAUAUCUC | 0.39
26 | UAACGGGGGGCCACAGCUGAAGCGUUCACGUCGCAGCCCUUGUCAGAUUCUGGUGUAUCUGCGAAUUCUGCUGUAUAUCUC | 0.11
27 | UAACGGGGGGCCACAGCGGAAGCGUUCACGUCGCAGCCCCUGUCAGAUUCUGGUGAACCUGCGAAUUCCGCAGUAUAUCCC | 0.25
28 | UAACGGGGGGCCACAGCAGAAGCGUUCGCGUCGCAGCCCCUGUCAGAUCCUGGUGAAUCUGCGAAUUCUGCUGUAUAUCUC | 0.22
29 | UAACGGGGGGCCACAGCAGAAGCGUUCGCGUCGCGGCCCCUGUCGGAUUCUGGUGAAUCUGCGAAUUCUGCCGAAUAUCUC | 0.66
30 | UAACGGGGGGCCACAGCAGAAGCGUUCCCGUCGCCGCCCCUGUCAUAUUCUGGUGAAUCUGCGAAUUCUGCUGUAUAUCUC | 0.31
31 | UAACGGGGGGCCACAGCUGAAGCGUUCACGUCGCAGCCCCCGUCAGAUUCUGGUGGAUCUGCGAAUUCCGCUGUAUAUCUC | 0.16
32 | UAACGGGGGGCCACAGCAGAAGCGUUCGCGUCGCGGCCCCUGUCAGAUUCUAGUGAAUCUGCGAAUUCUGCUGUAUAUCUC | 0.96
33 | UAACGGGGGGCCACAGCAGAAGCGUUCGCGUCGCAGCCCCUGUCAGAUUCUGGUGAAUGCGUGAAUUCUGCUGUAUAUCUC | 0.07
34 | UAACGGGGGGCCACAGCAGAAGCGUUCACGUCGCCGCCCCCGUCAGAUUCUGGUGUAUCUGCGAAUUCUGCUGUAUAUCUC | 0.52
35 | UAACGGGGGGCCACAGCAGUGGCGUUCACGUCGCAGCCCCUGUCAUAUUCUGGUGGAUCUGCGAAUCCGGCUGUAUAUCUC | 0.17
36 | UAACGGGGGGCCACAGCAGAAGCGUUCACGUCGCGGCCCCUGUCAGGUUCUGGUGAAUCUGCGAAUGCUGCUGUAUAUCUC | 0.79
37 | UAACGGGGGGCCACAGCGGAAGCGUUCGCGUCGCAGCCCCUGUCAGAUUCUGGUGAAUCUGCGAACUUCGCUGUAUAUCUC | 0.4
38 | UAACGGGGGGCCACAGCUGAAGCGUACACGCCGCAGCCCCUGUCAGAUUCUGGUGAAUCUGCGAAAGCUGCUGUACAUCUC | 0.12
39 | UAACGGGGGGCCACAGCUGAAGCGUUCACGUCGCAGCCCCUGUCAAAUCCUGGUGAAUCUGCGAAUUCUGCUGUAUAUCUC | 0.08
40 | UAACGGGGGGCCACAGCUGAAGCGUUCACGUCGCAGCCCCUCUCAGAUUCUGGUGAUUCUGCGAAUUCUGCUGUAUAUCUC | 0.17
41 | UAACGGGGGGCCACAGCGGAAGCGUUCACGUCGCAGCCCCUGUCAGGUUCUGGUGAAUCUGCGAAUUCUGCUGUAUAUCUC | 0.66
42 | UAACGGGGGGCCACAGCAGGAGCGUUCACGUUGCAGCCCCUGUCAGAUUCUGGCGAAUCUGCGAAUUCUGCUGUAUAUCUC | 0.09
43 | UAACGGGGGGCCACAGCAGAGGCGUUCACGUCGCGGCCCCUGUCGGGUUCUGGUGAAUCUGCGAAUACUGCUGUAUAUCUC | 0.13
44 | UAACGGGGGGCCACAGCUGAAGCGUUCACGUCGCAGCCCCUGUCAGAUUCUGGUGAACCUGCGUAUUCUGCUGUAAUUCUC | 0.1
45 | UAACGGGGGGCCACAGCUGAAGCGUUCACGUCGCAGCCCCUGUCAGAUUCUGGUGAAUCUGCGAAUUCUGCUGUAUAUCCC | 0.11
46 | UAACGGGGGGCCACAGCAGAAGCGUUCGCGCCGCAGCCCCUGUCAGAUUCUGGUGUAUCCGCGAAUUCUGCUGUAUAUCUC | 0.24

Row | Variant | self-cleavage
47 | UAACGGGGGGCCACAGCAGAAGCGUUCUCGUCGCAGCCCCUGCCAGAUUCUGGUGAAUCUGCGAAUUCUGCUGUAUAUCUC | 0.49
48 | UAACGGGGGGCCACAGCAGAAGCGUUCGCGUCGCAGCCUCUGUUAGAUUCUGGUGAAUCUGCGAAUUCUGCUGUAUGUCUC | 0.09
49 | UAACGGGGGGCCACAGCAGAAGCGUUCGCGUCGCAGCCCCUGUCAGAUUCUGGUGAAUCUGCGAGUUCUGCUGUAUAUCUC | 0.3
50 | UAACGGGGGGCCACAGCAGAGGCGCUCACGUCGCAGCCCCUGUCAGAUUCUGGUGAAUCCGCGAAUUCCGCUGUAUAUCUC | 0.13
51 | UAACGGGGGGCCACAGCAGGGGCGUUCACGUCGCAGCCCCUGUCAGAUUCUGGUGAAUCCGCGAAUUCUGCUGUAUAUCUC | 0.16
52 | UAACGGGGGGCCACAGCAGUAGCGUACACGUCGCAGCCCCUGUCAGAUUCAGGUGAAUCUGCGAAUUCUGCUGUAUAUCUC | 0.25
53 | UAACGGGGGGCCACAGCAGAGGCGUUCACGUCGCAGCCCCUGUCAGAUUCUGGUGGAUCUGCGAACUCUGCUGUAUAUCCC | 0.11
54 | UAACGGGGGGCCACAGCGGAAACGUUCACGUCGCAGCCCCCGUCAGAUUCUGGAGAAUCUGCGAGUUCUGCCGUAUAUCUC | 0.05
55 | UAACGGGGGGCCACAGCAGAAGCGUUCUCGUCGCGGCCCCCGUCAGAAUCUGGUGAAUCUGCGAUUUCUGCUGUAUAUCUC | 0.13
56 | UAACGGGGGGCCACAGCAGAGGCGUUCACGUCGCGGCCCCUGUCAGACUCUGGUGAAUCUGCGAAUUCUGCUGUAUACCUC | 0.46
57 | UAACGGGGGGCCACAGCUGAAGCGCUCACGUCGCAGCCCUAGUCAGAUUCUGGUGAAUCUGCGAAUUCUGCUGUAUAUCUC | 0.07
58 | UAACGGGGGGCCACAGCAGAAGCGUUCCCGUCGCAGCCCCUGUCAGAUCCUGGUGAAUCAGCGAAUUCUGCUGUAUACCUC | 0.09
59 | UAACGGGGGGCCACAGCAGAAGCGUUCUCGUCGCGGCCCCUGACAGAUCCUGGUGAAUCUGCGAAUUCUGCUGUAUAUCUC | 0.3
60 | UAACGGGGGGCCACAGCAGACGCGUUCACGUCGCAGCCCCUGUCAGAUUCUGGUAAAUCUGCGAAUUCUGCCGUAUAUCUC | 0.38
61 | UAACGGGGGGCCACAGCAGAAGCGUUCGCGUCGCAGCCCCUGUCAGAUUCUGGUGGAUCUGCGAGCUAUGCUGUAUACCUC | 0.05
62 | UAACGGGGGGCCACAGCUGAAGCGUUCACGUCGCAGCCCCUGUCAGAUUCCGGUGAAUCUGCGAAUUCUGCUGUAUAUCUC | 0.25
63 | UAACGGGGGGCCACAGCAGUAGCGUUCACGCCGCAGCCCCUGUCAGAUUCUGGUGAACCUGCGAAUUCUGCUGUAUAGCUC | 0.27
64 | UAACGGGGGGCCACAGCAGGAGCGUUCUCGUCGCAGCCCCUAUCAGAUUCUGGUGAAUCUGCGAAUUCUGCUGUAUAUCUC | 0.05
65 | UAACGGGGGGCCACAGCAGACGCGUUCACGUCGCAGCCCCUGUCGGAUUCUGGUGAAUCUGCGAGUUCUGCUGUAUAUCUC | 0.14
66 | UAACGGGGGGCCACAGCAGAAGCGUUCCCGUCGCAGCCCCUGUCAGACUCUGGUGAAUCUGCGAAUUCUGCUGUAUACCUC | 0.1
67 | UAACGGGGGGCCACAGCAGAGGCGUUCACGUCGCGGCCCCUGUCAGAUUCUGGUGAAUCUGCGAAUUCUGCUGUAUAUCUC | 1.03
68 | UAACGGGGGGCCACAGCUGAAGCGUCCACGUCGCAGCCCCUGUCAGAUUCUGGUGAAUCUGCGAAUUCUGCUGCAUAUCUC | 0.56
